From PubChem BioAssay AID686979 (National Center for Advancing Translational Sciences (NCATS), 2013)
Out of some 420,000 compounds screened, about 50,000 (12%) were called active. The inconclusive results got no clear call from the source; some entries with a clear call stand among them for comparison. Calls follow the shape of the dose curve; as a rule, active = well fitted inhibition curve with a large enough effect; inconclusive = small, poorly fitted or top-dose-only effect; inactive = flat fitted curve, though single readings scatter. No potency is given beside an inconclusive call; the fits are too rough.

Experiment: qHTS for Inhibitors of human tyrosyl-DNA phosphodiesterase 1 (TDP1): qHTS in cells in presence of CPT; also: nearly all actives have a fitted effect of over 55% in size
Settings: chicken DT40 Tdp1-/-;hTDP1 cells + 20 nM CPT, ATP luminescence, 48 h; activity change, negative = growth inhibition: at 46.2 µM (top of the series)
Procedure, shortened: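 Chicken DT40 Tdp1-/- cells stably complemented with human TDP1 were seeded at 400 cells/well in medium containing 20 nM camptothecin, exposed to pin-transferred compounds, and grown at 37 °C for at least 48 hr. Viability was read as ATP luminescence.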
% is scaled to controls: 0 for no effect and ±100 for the full control effect; potency is read from the fitted curve at half-maximal effect; tags tell the direction and shape of the fitted curve.

| Structure (SMILES) | Potency | activity change, negative = growth inhibition |
| --- | --- | --- |
| O=[N+]([O-])c1ccc(Nc2ccccc2O)c([N+](=O)[O-])c1 | inconclusive [inhibitor, single point] |  |
| COc1ccc(NC(=O)CCn2c(-c3ccc(F)cc3)cc(C(C)=O)c2C)c(OC)c1 | inconclusive [inhibitor, single point] |  |
| O=c1cc(CSc2ccccc2)[nH]c2ccc(F)cc12 | active: 11.6 µM |  |
| CC(C)n1c(O)c(N=NC(=O)Cn2ccc(C(F)(F)F)n2)c2ccccc21 | inconclusive [inhibitor, single point] |  |
| COc1cccc(NC(=O)N(C)C[C@H]2Oc3ncc(Br)cc3C(=O)N([C@H](C)CO)C[C@H]2C)c1 |  | inactive: -0.239% |
| COc1ccc(-c2cc(C(C)=O)c(C)n2CCC(=O)Nc2ccc(C)c(Cl)c2)cc1 | active: 14.6 µM |  |
| COC(=O)Cc1c(C)c2ccc(OC(C)C)cc2oc1=O |  | inactive: -29% |
| CC(C)[C@H](NS(=O)(=O)c1cccc(C(F)(F)F)c1)C(=O)OCC(N)=O |  | inactive: 2.76% |
| C#CCOc1ccc(/C=C2/C(=O)NN(c3ccccc3)C2=O)cc1OC |  | inactive: -2.2% |
| COc1ccc([C@H]2C[C@@H](n3cc(-c4ccc(F)cc4)nn3)[C@H](O)CN2CC2CCCCC2)cc1 | inconclusive [inhibitor, single point] |  |
| Cc1cccc(NC(=O)c2ccc(Cl)c(S(=O)(=O)N3CCc4ccccc43)c2)n1 | active: 23.1 µM |  |
| CCOc1ccc(/C=C/C(=O)N(CC)CC(=O)NCc2cccs2)cc1OC |  | inactive: -17.8% |
| CCOC(=O)[C@]12CCCC=C1N(Cc1ccc3c(c1)OCO3)C(=O)[C@H](CC(=O)N1CCN(C(=O)C3CC3)CC1)C2 | inconclusive [inhibitor, single point] |  |
| CCc1ccc(Nc2nnc(-c3cc4cc(OC)ccc4oc3=O)s2)cc1 | inconclusive [inhibitor, partial curve, poor fit] |  |
| COc1ccc(C(=O)C2CCN(C(=O)c3ccc(OC)cc3)CC2)cc1 | inconclusive [inhibitor, single point] |  |
| O=C(c1ccc2c(c1)N(Cc1cccc(Cl)c1)C(=O)c1ccccc1S2(=O)=O)N1CCN(c2ccccn2)CC1 | inconclusive [inhibitor, single point] |  |
| CC(NC(=O)c1cc(-c2ccncc2)nc2ccc(Br)cc12)C1CCCO1 (centres undefined) | inconclusive [inhibitor, partial curve] |  |
| Cc1ccc(NC(=O)c2c(C)oc3ccc(O)c(CN(C)Cc4ccccc4)c23)c(C)c1 | active: 16.4 µM |  |
| CCOC(=O)C(CCc1ccccn1)c1ccccc1 (centres undefined) | inconclusive [inhibitor, single point] |  |
| C#CCOCCOCCOCCNc1nc(N2CCOCC2)nc(N2CCN(C(=O)[C@H]([C@@H](C)CC)n3cc(CCCCN)nn3)CC2)n1 |  | inactive: -18.3% |
| NS(=O)(=O)c1ccc(CCNC(=O)c2ccc3nc4ccc(Cl)cc4c(=O)n3c2)cc1 |  | inactive: -24.5% |
| Cn1c(NC(=O)c2cccnc2)nc2ccccc21 | inconclusive [inhibitor, single point] |  |
| NNC(=S)Nc1cccc(Cl)c1 | inconclusive [inhibitor, single point] |  |

| Structure (SMILES) | Potency | activity change, negative = growth inhibition |
| --- | --- | --- |
| Cc1cccc(C)c1NC(=O)C(c1ccccc1OC(F)(F)F)N1CCN(C)CC1 (centres undefined) |  | inactive: -28.3% |
| COc1c2ccc(OCC/C(C)=C/C(=O)C=C(C)C)cc2nc2occc12 | inconclusive [inhibitor, partial curve] |  |
| CC1(C)CC(=O)N(c2cc(Cl)cc(Cl)c2)C(=O)C1 |  | inactive: -8.76% |
| Cc1[nH]n(-c2ccccc2)c(=O)c1N=Nc1ccccc1C(=O)N1CCCCC1 |  | inactive: -4.43% |
| CCc1c(C)nc(SCc2nc(-c3ccccc3C)no2)[nH]c1=O | inconclusive [inhibitor, single point] |  |
| Cc1ccc(NC2=C(CC(=O)O)C(c3ccccc3)N(c3ccc(C)cc3)C2=O)cc1 (centres undefined) | active: 16.4 µM |  |
| CC[C@]1(O)C[C@@H]2CN(CCc3c([nH]c4ccccc34)[C@](C(=O)OC)(c3cc4c(cc3OC)N(C)[C@H]3[C@](O)(C(=O)OC)[C@@H](C(=O)OC)[C@@]5(CC)C=CCN6CC[C@@]43[C@@H]65)C2)C1 | active: 0.0841 µM |  |
| CC1C(=O)N(Cc2ccccc2F)c2ccccc2N1C(=O)c1c(F)cccc1F (centres undefined) | active: 18.4 µM |  |
| CN(C(=O)CN1C(=O)/C(=C/c2ccc(F)cc2)SC1=S)C1CCS(=O)(=O)C1 (centres undefined) | inconclusive [inhibitor, partial curve, poor fit] |  |
| COc1ccc(OC)c(CNc2ncnc3c2nc2n3CCCC2)c1 | active: 13 µM |  |
| CC[C@@H]1Cc2[nH][nH]c(=O)c2[C@@H](c2ccc(Cl)cc2)O1 |  | inactive: -22% |
| COc1cc(NC(=O)C(NS(=O)(=O)c2ccc3c(c2)CCCC(=O)N3)C(C)C)cc(OC)c1 (centres undefined) |  | inactive: 1.56% |
| Cc1nccn1CC1CCC2C(C1=O)c1ccccc1N2C (centres undefined) |  | inactive: 16.9% |
| CCOC(=O)c1ccc(Nc2nnc(C(C)(C)C)c(=O)[nH]2)cc1 | inconclusive [inhibitor, single point] |  |
| CN(C)CCNS(=O)(=O)c1ccc(N2CCN(c3ccc(F)cc3)CC2)c([N+](=O)[O-])c1 | active: 13 µM |  |
| Cc1cccc(C)c1OCc1nnc(SCC(=O)Nc2nccs2)n1-c1ccccc1 | inconclusive [inhibitor, partial curve, poor fit] |  |
| COc1ccc(S(=O)(=O)N2CCN(CCOc3ccccc3Cl)CC2)cc1OC | active: 23.1 µM |  |
| CC[N+]1(CC(=O)c2cccs2)CCCCC1 | inconclusive [inhibitor, partial curve] |  |
| NC1=NC[C@H](c2ccccc2)N1CCc1cc(C(F)(F)F)cc(C(F)(F)F)c1 | active: 18.4 µM |  |
| Cc1cc(=O)[nH]c(-n2ncc(C#N)c2N)n1 |  | inactive: 2.25% |
| CC(C)(C)c1cn(-c2ccc(Cl)cc2)c(=S)[nH]1 | inconclusive [inhibitor, single point] |  |
| Cc1ccc(CNC(=O)c2cc(S(=O)(=O)N3CCCCC3)ccc2N2CCOCC2)cc1 | inconclusive [inhibitor, single point] |  |
| CC[C@H](C)[C@H](NC(=O)c1ccc(Cl)cc1)C(=O)OCC(=O)c1ccc2c(c1)NC(=O)CO2 | inconclusive [inhibitor, single point] |  |

| Structure (SMILES) | Potency | activity change, negative = growth inhibition |
| --- | --- | --- |
| O=C(CN1C2CCCC1CC(NC(=O)c1ccccc1)C2)Nc1ccccc1 (centres undefined) | inconclusive [inhibitor, single point] |  |
| Cc1c(C(=O)NCc2cccnc2)sc2nc(-c3ccccc3)cn12 |  | inactive: -9.87% |
| CCn1nc(C(=O)Nc2cccc(S(=O)(=O)N3CCCC3)c2)c2ccccc2c1=O | inconclusive [inhibitor, single point] |  |
| COc1cc(CC(=O)NCC(C)(C)N2CCOCC2)cc(OC)c1OC |  | inactive: -2.12% |
| CCCn1c(=N)n(CC(O)c2ccc(C)cc2)c2ccccc21 (centres undefined) | inconclusive [inhibitor, single point] |  |
| Cc1ccc(NC(=O)Nc2cccc([N+](=O)[O-])c2)cc1F | inconclusive [inhibitor, single point] |  |
| Cc1ccccc1C(=O)Nc1nnc(S(=O)(=O)N(C)c2ccc(Cl)cc2)s1 | inconclusive [inhibitor, partial curve] |  |
| CSCCC(NS(=O)(=O)c1ccc(Cl)cc1)C(=O)OCC(=O)c1c(C)[nH]c2ccccc12 (centres undefined) | inconclusive [inhibitor, single point] |  |
| CC(C)c1ccc(Nc2nc(N3CCOCC3)nc(N3CCOCC3)n2)cc1 | active: 18.4 µM |  |
| CC(C)(C)OC(=O)C[C@@H]1C/C=C\C[C@H](CC(=O)N[C@@H](CO)Cc2ccccc2)C(=O)N[C@H](C(C)(C)C)COC1=O | active: 20.6 µM |  |
| COc1ccc(CCNC(=O)c2ccc3c(c2)NC(=O)C(N2CCOCC2)S3)cc1OC (centres undefined) | inconclusive [inhibitor, single point] |  |
| O=C(O)CC1(CC(=O)Nc2ccc(Oc3cccc(C(F)(F)F)c3)nc2)CCCC1 |  | inactive: -8.87% |
| CN(C)c1ccc(C(C(=O)NCC2CCCO2)N(C(=O)c2snc(C(N)=O)c2N)c2ccccc2)cc1 (centres undefined) | inconclusive [inhibitor, partial curve] |  |
| C[C@@H]1CC=C[C@H]2[C@H]1C(=O)N(Cc1ccccc1)[C@H]2c1ccc(F)c(/C=C/c2ccccc2)c1 | active: 8.2 µM |  |
| COc1cccc(Nc2ncnc3sc(C)cc23)c1 | inconclusive [inhibitor, single point] |  |
| Cc1onc(-c2ccccc2Cl)c1C(=O)Nc1cccc(-c2nc3ncccn3c2C)c1 | inconclusive [inhibitor, single point] |  |
| COc1cc(C2c3c(-c4ccccc4)n[nH]c3C(=O)N2c2ccc(C(=O)O)cc2)ccc1O (centres undefined) |  | inactive: 5.65% |
| COc1ccc(C)c2sc(N(CCCN(C)C)C(=O)c3ccc(S(=O)(=O)N4CCc5ccccc5C4)cc3)nc12 | active: 2.91 µM |  |
| COc1cccc(CCc2nnc(CCC(=O)N3CCN(Cc4ccccn4)CC3)o2)c1 |  | inactive: -5.1% |
| NC1=NC2=C(CCCC2)C2(CCCCC2)S1 | inconclusive [inhibitor, partial curve, poor fit] |  |
| N#Cc1cc2c(nc1SCC(N)=O)CCCCC2 | inconclusive [inhibitor, single point] |  |
| Cc1cccc(CS(=O)(=O)Cc2ccc(C(=O)NCCCN3CCCC3)o2)c1 |  | inactive: -8.67% |
| Cc1ccc(C(C)C)c(OCC(=O)N/N=C/c2cccn2C)c1 | inconclusive [inhibitor, single point] |  |
